From the supplement of paper PMC11417369
± gives the standard deviation of the averaged measurements. The list shows a part of the results.

tested on: PfAP2-EXP AP2 domain (GST-tagged); assay: gcPBM binding intensity (ln(normalized median fluorescence intensity)); higher = stronger DNA binding
Method in brief: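 Binding intensity is defined as the maximum Masliner-normalised natural-log median intensity across replicate spots for either probe orientation. It was measured on an Agilent 4 × 180k array of primer-extended double-stranded 36-bp intergenic genomic probes and negative controls, to which GST-tagged P. falciparum DNA-binding domains made in E. coli were applied for 1 h in 1× PBS with 1% milk, 0.2 mg/ml BSA, 0.5% salmon testes DNA and 0.03% Triton X-100. Detection was by Alexa488 anti-GST antibody and scanning at 488 nm.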

| Sequence | gcPBM binding intensity (ln) |
| --- | --- |
| CTTATAAATAAAAGAAGTACATGTTAGTTCAAGTTA [XGTACX_site4183] | 8.66 ± 0.38 |
| ATTATATTTATTAATATGTATATTTAATTATATTTA [XGTACX_negctrl_site376] | 7.98 ± 0.28 |
| TTTCATCTCGTCATTTCTTATATAACTATTTTATAC [CACACA_negctrl_site813] | 8.85 ± 0.44 |
| ATTATTGTTTATTGATTTTTGTTAAAATAGGAAATT [GTGCAC_negctrl_site181] | 8.37 ± 0.4 |
| CAAATTTTTTATTAAACACACAAACATATATATATA [CACACA_site5122] | 9.95 ± 0.2 |
| AAGTGTAAAAGTTACACACACAAACTTGTCATTTTT [CACACA_site4614] | 8.74 ± 0.51 |
| TTCTTTATTATATGCACACGTACATAAAATATATAT [CACACA_site5157] | 8.72 ± 0.19 |
| ATTTTTTTTTTTTTTTGTACGAATAATATGTATGAA [XGTACX_site5318] | 8.29 ± 0.32 |
| TATAAAAAATATATATATAATATTATATATATATAT [TGCATGCA_negctrl_site260] | 9.77 ± 0.32 |
| AAAGGAGGGAATTTTTCTAGGTGTGGAGTGCTACTC [XGTACX_negctrl_site63] | 8.38 ± 0.42 |
| TCGTCTCAATAATTATAATAAAAAAATTCCTAAGTC [CACACA_negctrl_site338] | 8.27 ± 0.36 |
| ATTTTCCTATTTAGTAGTACTTTTTTCTTTTTTTAA [XGTACX_site5260] | 8.81 ± 0.45 |
| TTATATTTCACAAATGTGCACAGATACATATATATA | 9.13 ± 0.14 |
| TTTTTGTTTCATAAATGTACAAAAACAAACATATTT [XGTACX_site5281] | 8.29 ± 0.41 |
| TTATATGTATATATAGTGCAGAACAAAAGATTATAT [GTGCAC_site9599] | 8.91 ± 0.4 |
| AATTTAATCCGTAATAAGAAAAGAAAAAAAAAAAGA [GTGCAC_negctrl_site129] | 8.48 ± 0.47 |
| ATTAGCTACAAACAAAGGCTACCTATAGCAAGAGGG [GTGCAC_negctrl_site33] | 8.84 ± 0.39 |
| TATATATATACATACATACACACATATATATATATA [CACACA_site4109] | 10.1 ± 0.67 |
| ATAATTTCTTTTACATGTACAAAATTTGCTTATATG [XGTACX_site5388] | 9.1 ± 0.47 |
| ATATATATAATGTGAAGTACATTTTGTTTACATATT [XGTACX_site8405] | 8.91 ± 0.42 |
| TAATTTATGGAATATGTGCACTTGCTGATCACTTTT [GTGCAC_site9843] | 8.89 ± 0.29 |
| GGATTATTTATAGGAGTGCATACATATATATATATA [GTGCAC_site9454] | 10.1 ± 0.41 |

| Sequence | gcPBM binding intensity (ln) |
| --- | --- |
| TTTACACTTTCCAATAGTACATATTAGAATAATTCT [XGTACX_site7734] | 8.51 ± 0.3 |
| TTTATTAAATAATCTCTTTTTATTACATAATAATAA [XGTACX_negctrl_site382] | 7.93 ± 0.43 |
| AATATCTAAATAAAGTGTACTTACCTTATTAATTAT [XGTACX_site2276] | 8.2 ± 0.4 |
| CCAATACATAGAAACTGTACATTATGCATTATACAC [XGTACX_site3531] | 8.79 ± 0.28 |
| AATAAACATAAATACACACACAAAAAAAAAAACATA [CACACA_site4396] | 8.61 ± 0.56 |
| TTTTTTTTTTTTTGATGTACTAAAAAAAATGAGCCT [XGTACX_site8535] | 8.16 ± 0.22 |
| AAATATTACTACACTACATGCAGTTTTAGGTACACT [TGCATGCA_site42] | 8.97 ± 0.29 |
| AAAAACAAAATATAATGTACACAATATATGTATATA [XGTACX_site2301] | 8.52 ± 0.19 |
| TGTAGTCTGGAGAAGAGTACATAGTATCTGGTAACA [XGTACX_site4944] | 8.7 ± 0.26 |
| TATAGGTAAATGGACACACACATATTTATATTTATA [CACACA_site7683] | 8.64 ± 0.44 |
| ATAGAAGCATCACACTGTACATGGATGAACAGAAAA [XGTACX_site7311] | 8.72 ± 0.44 |
| TATAATATAAGGATCACACACAAACAGACATATATA [CACACA_site557] | 9.03 ± 0.49 |
| TTATTAGGTGTATAATGTACATATAATATATATATA [XGTACX_site3398] | 9.405 ± 0.035 |
| TAATGTTTTTATATCACACACAAATATTAAATGATT [CACACA_site543] | 8.33 ± 0.42 |
| TTAAAAATTATGGATACACACATATATATATATATT [CACACA_site2383] | 8.32 ± 0.3 |
| GATATTAAAATATGTAGTACACATATTATATCATAT [XGTACX_site4167] | 8.58 ± 0.11 |
| ATAGTTCCTTTTAATACACACAAAAAAAAAAACATG [CACACA_site3415] | 8.45 ± 0.42 |
| TACATATTTGTATATGCACACATAAATTTTTCCATT [CACACA_site9148] | 8.48 ± 0.25 |
| AAATATTTATACCACACACACATACCTCTATTTGTA [CACACA_site6957] | 8.69 ± 0.51 |
| TAAATATAGGGTAATAGTACATAATTATATTCTTTT [XGTACX_site3883] | 8.3 ± 0.34 |
| TTTTTTTTTTTTTAATGTACCCATGGGCACATAGGT [XGTACX_site486] | 8.53 ± 0.23 |
| TATATTTATATATTAGTGCACTTTTTGTTAATTTTT | 8.79 ± 0.19 |

| Sequence | gcPBM binding intensity (ln) |
| --- | --- |
| AATGGATTAGCTAGCACACACAAAAAAAAAAAAAAA [CACACA_site3031] | 8.38 ± 0.61 |
| GATACAAAATGGGGAACACACACATATATATATATA [CACACA_site9278] | 10.1 ± 0.38 |
| TATATATATATATAATGTACGAATAGAAAAAAAAAA [XGTACX_site7231] | 9.88 ± 0.3 |
| CAAAATTTATATAATAGTACACATGATCTTTTTTCT [XGTACX_site8956] | 8.43 ± 0.49 |
| TATATATATATATATATATATATTAATATATATTAC [XGTACX_negctrl_site103] | 9.88 ± 0.42 |
| AAATTAATAAATATTTTTATAAATTATAATATTAAT [GTGCAC_negctrl_site533] | 7.91 ± 0.42 |
| ATAACAAAATAAAACACACACACAAATGTACCTATA [CACACA_site7190] | 8.69 ± 0.45 |
| TAAAGGCAAACAAACACACACACATATATACCTATA [CACACA_site7078] | 8.62 ± 0.63 |
| TATTTATAAATATAAACACACAACATTATATGCATA [CACACA_site5748] | 8.6 ± 0.47 |
| AAAAGTGTATGTAGGTGTACTTTTTATTTCTTCTTT [XGTACX_site8819] | 8.53 ± 0.39 |
| TTTTACTATGATATTTATATATCTATATATGTATAT [XGTACX_negctrl_site499] | 8.21 ± 0.36 |
| TATAATATTATAGTTTGTACGAAAATAATATATTTA [XGTACX_site8673] | 8.42 ± 0.51 |
| AAAAATAAAAATGAGTGTACTTTAAGCCCTACACTT [XGTACX_site828] | 8.26 ± 0.25 |
| ACGATGTTCATCACTACACACACAAAGAAATATATA [CACACA_site8859] | 8.63 ± 0.47 |
| AACCAAAATTTTTGTCGTACAAAAGAGCAAATGTAG [XGTACX_site6472] | 9.11 ± 0.34 |
| TGATTATAGACACGCGCACACACAACAAAAAAAAAA [CACACA_site9179] | 8.72 ± 0.45 |
| TAAGTTTGTGCAAGTGGTACATATATATAAATTTAT [XGTACX_site5944] | 8.75 ± 0.37 |
| TGGATTTTTTGATTTTTGTTTTTCTTCTTTCCCCCC [CACACA_negctrl_site1471] | 9.31 ± 0.2 |
| TTAGCAACTATTACTACACACATTTGTATTTAATTT [CACACA_site4961] | 8.49 ± 0.35 |
| TTTACATAAACTGGTAGTACATAATATGGCTTAAAA [XGTACX_site5002] | 8.49 ± 0.35 |
| TAAAATATATTTTTCTGTACACAAAAATATATTAAA [XGTACX_site2813] | 8.44 ± 0.13 |
| TATATATTAATATATGCATGTTAATATATTATGAAA [TGCATGCA_site61] | 8.29 ± 0.38 |

| Sequence | gcPBM binding intensity (ln) |
| --- | --- |
| ACAGTATAAAAATAAGCACACACACTAATATATATT [CACACA_site8212] | 8.75 ± 0.4 |
| AATGTAAAACGAAATGCACACTATGGAAAATATAAA [CACACA_site4559] | 9.05 ± 0.45 |
| TCTTTATATCATCTTTCTAAATATATATATATATAA [CACACA_negctrl_site77] | 8.56 ± 0.58 |
| TAATAATAATTAAAATGAGATAAATAAATATATATA [TGCATGCA_negctrl_site322] | 8.39 ± 0.26 |
| CTATTAATGTACTCTACACACATATAAGAGGACATT [CACACA_site471] | 8.4 ± 0.2 |
| TTATATATTTATAAATGTACGTATAAGAATTTAATT [XGTACX_site8541] | 8.57 ± 0.38 |
| TATTACAAAAATGTGTTATTATATAAACGTATAGAG [XGTACX_negctrl_site529] | 8.63 ± 0.35 |
| TTTCTTATATTATATAAATATATAGATGTTAATGGT [CACACA_negctrl_site706] | 8.38 ± 0.47 |
| AATATAATATAATGCACACATAAAAAAAAAAAAAAA [CACACA_site304] | 8.77 ± 0.071 |
| TTAATATTAAAATATAAACACACAAAATTCAATTAT [CACACA_site9262] | 8.48 ± 0.42 |
| AGTAAATATATTATATGTACGTATCATAAAATATAT [XGTACX_site1567] | 8.46 ± 0.28 |
| AAGTTTAAAGGAATTACACAAACAAGCAAATATATA [CACACA_negctrl_site857] | 8.79 ± 0.52 |
| GTAAAATAAATAATATAAATAAAATGAAATGAAACA [TGCATGCA_negctrl_site519] | 9.01 ± 0.63 |
| ATTTTTTTTTTTTTTTTTAATTTATGTTGTTATTTT [CACACA_negctrl_site944] | 8.2 ± 0.5 |
| ATATATATATATATAGTGCAAATAAAAAATAGACAA [GTGCAC_site9796] | 10.2 ± 0.3 |
| TAATATATTAAAAGAAGTACATTTCTGATTTAATAG [XGTACX_site6403] | 8.38 ± 0.25 |
| GAACCGTTTTTATGTAGTACATATGTATATATATAT [XGTACX_site1577] | 9.66 ± 0.2 |
| ATTATATAATAATAAAGTACTAATATTTTTAAAAGA [XGTACX_site235] | 8.41 ± 0.38 |
| TTATTTATATATTGCCCACACACATGTGATTATTTA [CACACA_site1715] | 8.91 ± 0.4 |
| AATATTTTTTGTTTTACACACATATATAAATATATA [CACACA_site3602] | 8.53 ± 0.41 |
| TATTCCCCCCAACACACACACACACCGACATACCAC [CACACA_site8723] | 10.2 ± 0.23 |
| GAATTATATACTTATTGTACAAAAAAAAAAAAAAAA [XGTACX_site3193] | 8.19 ± 0.37 |
